Reference: PubChem BioAssay (NCATS)
Where “and” joins values, the source holds several entries; their conditions need not be identical. Equal values may be shown once. Inconclusive results, whose numbers are uncertain, are shown with a selection of clear calls. Potencies beside an inconclusive call are fits to weak or partial responses and may not hold up. Calls of active or inactive are those of the source. The call rests on the fitted dose curve; in most records, active means well fitted cell-killing curve with a large enough effect; inconclusive means small, poorly fitted or top-dose-only effect; inactive means no such curve, though single readings can be large or run the other way.

Assay: qHTS of pediatric cancer cell lines to identify multiple opportunities for drug repurposing: Primary screen for SK-N-SH cells (AID 1347098); further: nearly all actives have a fitted effect of over 65% in size
Details: SK-N-SH viability, CellTiter-Glo luminescence, 48 h; series mostly up to 57 µM
Outline: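 Cells (500-1,000/well) rested 5 h, then received compounds for 48 h; metabolically active cells were measured by CellTiter-Glo luminescence. Final concentrations spanned up to 46 µM (MIPE, 11-point) or 0.59 nM-46 µM (NPC, 8-point) in primary screens, 11-point in follow-ups.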
Potency means the concentration at half of the fitted maximal effect; tags describe the fitted curve by direction and shape.

SMILES	Potency
CN1CCc2c(n(Cc3ccc(C(=O)NO)cc3)c3ccccc23)C1	inconclusive: 21.5 µM [cytotoxic, partial curve]
COCC(=O)O[C@]1(CCN(C)CCCc2nc3ccccc3[nH]2)CCc2cc(F)ccc2[C@@H]1C(C)C	active: 19.4 µM
CN(C)CC/C=C1\c2ccccc2Sc2ccc(Cl)cc21	inconclusive: 30.7 µM [cytotoxic, single point]
Nc1ncnc2c1ncn2[C@@H]1O[C@H](CO)[C@@H](O)[C@@H]1O	active: 15.2 µM
CCC(C=C[C@@H]1OC(=O)C=C[C@H]1C)=C[C@H](C)CC=CC(C)=C[C@@H](C)C(=O)[C@@H](C)[C@H](O)[C@@H](C)CC(C)=CC(=O)O	active: 0.0403 µM
NC(N)=NN=C(/C=C/c1ccc([N+](=O)[O-])o1)/C=C/c1ccc([N+](=O)[O-])o1	active: 3.86 µM
O=C(O)c1ccc(Nc2ncc3c(n2)-c2ccc(Cl)cc2C(c2c(F)cccc2F)=NC3)cc1	inconclusive: 3.41 µM [cytotoxic, partial curve]
CC(=O)Nc1cccc(O)c1	inactive
C[C@@H](N)C1CCC(C(=O)Nc2ccncc2)CC1 (stereo partly drawn)	inconclusive: 24.1 µM [cytotoxic, partial curve]
CN1CCN(CCCN2c3ccccc3Sc3ccc(S(=O)(=O)N(C)C)cc32)CC1	active: 15.4 µM
CN1C(C(=O)Nc2ccccn2)=C(O)c2sc(Cl)cc2S1(=O)=O	active: 9.61 µM
NC(=O)Nc1cc(-c2ccc(CN3CCOCC3)cc2)sc1C(N)=O	active: 1.36 µM
Nc1cccc2c1C(=O)N(C1CCC(=O)NC1=O)C2=O (stereo not drawn)	inactive
Oc1c(I)cc(I)c2cccnc12	inconclusive: 38.6 µM [cytotoxic, single point]
Clc1ccc(Nc2nnc(Cc3ccncc3)c3ccccc23)cc1	inconclusive: 34.1 µM [cytotoxic, single point] and active: 21.7 µM
CN(C)CCOc1ccc(C(=C(CCCl)c2ccccc2)c2ccccc2)cc1	inactive
COc1cc(N2CCC(C(N)=O)CC2)ccc1Nc1nc(N)c(Cl)c(Nc2ccccc2S(=O)(=O)C(C)C)n1	inconclusive: 0.681 µM [cytotoxic, full curve]
CCOC(=O)N1CCN([N+]([O-])=NOc2ccc([N+](=O)[O-])cc2C#N)CC1	inactive
NC(=O)c1noc([C@H](CCCC2CCCCC2)CC(=O)NO)n1	inconclusive: 24.1 µM [cytotoxic, partial curve]
CCCCCN=C(N)N/N=C/c1c[nH]c2ccc(OC)cc12	active: 4.33 µM
C[C@H](NC(=O)C(C#N)=Cc1cccc(Br)n1)c1ccccc1	inconclusive: 30.4 µM [cytotoxic, partial curve]
CC1=C(CC(=O)O)c2cc(F)ccc2C1=Cc1ccc(S(C)=O)cc1 (stereo not drawn)	active: 19.2 µM
CC1(C)O[C@@H]2C[C@H]3[C@@H]4CCC5=CC(=O)CC[C@]5(C)[C@@]4(F)[C@@H](O)C[C@]3(C)[C@]2(C(=O)CCl)O1	inactive
C#Cc1cccc(Nc2ncnc3cc(OCCOC)c(OCCO)cc23)c1	active: 3.83 µM
COc1cc2nc(-c3cc(F)ccc3O)nc(N[C@@H]3CNC[C@@H]3C(C)(C)O)c2cc1OC	active: 30.4 µM
COc1cc(Cl)cn2c(-c3cccc(NC4CNC4)n3)cnc12	inconclusive: 24.1 µM [cytotoxic, partial curve]
COc1cc2ncnc(Nc3cccc(Cl)c3)c2cc1OC	active: 8.57 µM
CC(CN(C)C)CN1c2ccccc2CCc2ccccc21 (stereo not drawn)	inconclusive: 43.3 µM [cytotoxic, single point]

Assay: qHTS of pediatric cancer cell lines to identify multiple opportunities for drug repurposing: Primary screen for NB1643 cells (AID 1347099); further: nearly all actives have a fitted effect of over 50% in size
Details: NB1643 neuroblastoma viability, CellTiter-Glo luminescence, 48 h; series mostly up to 46 µM
Outline: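 ATP-based luminescence (CellTiter-Glo) quantifies viability after a 48-hour exposure. Compounds are dosed across 8 or 11 final concentrations; DMSO and 2.3 µM bortezomib serve as controls.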

SMILES	Potency
Cc1cc(NC(=O)Nc2ccc(N(C)C)cc2)c2cc(F)cc(F)c2n1	inactive
CC1C(=O)OC2C(O)C34C5CC(C(C)(C)C)C36C(OC(=O)C6O)OC4(C(=O)O5)C12O (stereo not drawn)	inconclusive: 3.72 µM [cytotoxic, partial curve, poor fit]
CCC[C@H](Nc1nc(-c2ccc(NC(=O)NCC)c(OC)c2)ncc1C)c1cccnc1	inconclusive: 0.418 µM [cytotoxic, partial curve]
CCN1CCN(Cc2ccc(-c3cc4c(N[C@H](C)c5ccccc5)ncnc4[nH]3)cc2)CC1	inconclusive: 37.2 µM [cytotoxic, partial curve, poor fit]
Nc1ncnc2c1ncn2[C@@H]1O[C@H](CO)[C@@H](O)[C@@H]1O	active: 0.833 µM
O=C(O)c1ccc(Nc2ncc3c(n2)-c2ccc(Cl)cc2C(c2c(F)cccc2F)=NC3)cc1	inconclusive: 26.4 µM [cytotoxic, partial curve, poor fit]
C[C@@H](N)C1CCC(C(=O)Nc2ccncc2)CC1 (stereo partly drawn)	inactive
COc1cc(N2CCC(C(N)=O)CC2)ccc1Nc1nc(N)c(Cl)c(Nc2ccccc2S(=O)(=O)C(C)C)n1	active: 0.526 µM
NC(=O)c1noc([C@H](CCCC2CCCCC2)CC(=O)NO)n1	active: 18.7 µM
CCCCCN=C(N)N/N=C/c1c[nH]c2ccc(OC)cc12	inconclusive: 33.5 µM [cytotoxic, single point]
